# Among all 94,000 compounds or so, about 4,000 (4.3%) were called active. The inconclusive results got no clear call from the source; some entries with a clear call stand among them for comparison. The call rests on the fitted dose curve; in most records, active means well fitted inhibition curve with a large enough effect; inconclusive means small, poorly fitted or top-dose-only effect; inactive means no such curve, though single readings can be large or run the other way. Potencies beside an inconclusive call are fits to weak or partial responses and may not hold up.
# Test: Cytotoxic Profiling in NIH 3T3 Cell Line of Diverse Libraries Using Quantitative High-Throughput Screening; further: nearly all actives have a fitted effect of over 55% in size
# Details: NIH 3T3 viability, CellTiter-Glo ATP luminescence, 48-72 h; series mostly up to 96.7 µM
# In short: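 NIH 3T3 cells at 400 cells/well received 23 nL of compound by pintool and were incubated 48 or 72 h at 37 °C. Viability was read as ATP-coupled CellTiter-Glo luminescence.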
# Potency means the concentration at half of the fitted maximal effect; tags describe the fitted curve by direction and shape.
row,SMILES,Potency
1,COc1cccc([C@@H]2CCN(Cc3[nH]c4ccccc4c3C)C[C@H]2O)c1,"inconclusive: 56.2 µM [inhibitor, partial curve, poor fit]"
2,CN1Cc2ccccc2-n2ccnc2C12CCN(C(=O)c1cccc(Cl)c1)CC2,inactive
3,O=C(O)C1=NOC2CN(CC3CCNC3)CC12 (stereo not drawn),inactive
4,CC(C)CN1Cc2ccccc2-n2ccnc2C12CCN(C(=O)c1cccc(F)c1)CC2,"inconclusive: 44.7 µM [inhibitor, partial curve, poor fit]"
5,CCCNC(=O)OC[C@H]1C[C@@H]2CCN1C[C@@H]2c1cc(-c2cccs2)nc(C)n1,"inconclusive: 126 µM [inhibitor, partial curve, poor fit]"
6,CCC(CC)c1cc([C@H]2CN3CC[C@H]2C[C@@H]3CNC(=O)c2ccco2)nc(-c2ccncc2)n1,inactive
7,CC[C@H]1CN2CC[C@H]1C[C@@H]2CNCc1ccc(-c2ccccc2)cc1,active: 28.2 µM
8,O[C@H]1[C@H](NC2CCOCC2)[C@@H](C2CCCCC2)C[C@H]1O,inactive
9,CC[C@H]1CN2CC[C@H]1C[C@@H]2COC(=O)Nc1cc(OC)cc(OC)c1,"inconclusive: 112 µM [inhibitor, partial curve, poor fit]"
10,Cc1noc(C)c1C(=O)N1C2CCC1CN(C(C)C)C2,"inconclusive: 112 µM [inhibitor, partial curve, poor fit]"
11,O=C(Nc1ccc(=O)n2c1[C@@H]1C[C@@H](CN(S(=O)(=O)c3ccccc3)C1)C2)c1cccnc1,inactive
12,COc1ccc(-c2cn(C[C@H]3C[C@@H]4CCN3C[C@@H]4C(=O)NCc3ccccc3)nn2)cc1,inactive
13,COc1cc2c(cc1OCC1CC1)NC(=O)C21CCN(c2nccs2)CC1,"inconclusive: 100 µM [inhibitor, partial curve, poor fit]"
14,C=C[C@H]1CN2CC[C@H]1C[C@@H]2CNCc1ccc(OC(F)(F)F)cc1,"inconclusive: 89.1 µM [inhibitor, partial curve, poor fit]"
15,COc1cc2c(cc1CCc1ccccc1)N([S+](=O)([O-])c1ccc3c(c1)CCO3)CC21CCN(C(C)=O)CC1,active: 25.1 µM
16,CC(=O)N1C[C@@H]2C[C@H](C1)c1ccc(NC(=O)Nc3ccccc3)c(=O)n1C2,inactive
17,CCNC(=O)NC[C@H]1C[C@@H]2CCN1C[C@@H]2c1cc(-c2ccccc2)nc(C)n1,"inconclusive: 112 µM [inhibitor, partial curve, poor fit]"
18,Cc1ncc2c(n1)C[C@@H]1CC[C@H]2N1C(=O)NC(C)(C)C,"inconclusive: 22.4 µM [inhibitor, partial curve, poor fit]"
19,O=C1CO[C@H]2CN(Cc3ccccn3)C[C@H]2N1c1ccccc1,"inconclusive: 112 µM [inhibitor, partial curve, poor fit]"
20,CC(C)CN1Cc2ccccc2-n2ccnc2C12CCN(C(=O)c1ccccc1F)CC2,inactive
21,COc1cc2c(cc1OCc1ccccc1)N(C(=O)COc1ccccc1)CC21CCN(C)CC1,active: 22.4 µM

row,SMILES,Potency
1,COc1cc2c(cc1OCC1CC1)NC(=O)C21CCN(c2cnccn2)CC1,inactive
2,Cc1cccc(OCC(=O)N2CCC3(CC2)c2nccn2-c2ccccc2CN3C)c1,inactive
3,COc1cc2c(cc1OCC1CC1)NC(=O)C21CCN(c2nccc(C(F)(F)F)n2)CC1,"inconclusive: 70.8 µM [inhibitor, single point]"
4,COc1cc2c(cc1OC1CCCC1)NC(=O)C21CCN(Cc2ccccc2)CC1,active: 89.1 µM
5,COc1ccc(NC(=O)N2[C@H]3CC[C@@H]2c2cnc(C)nc2C3)cc1OC,inactive
6,O=C1OCC2(CCN(Cc3ccn[nH]3)C2)N1c1ccncc1 (stereo not drawn),"inconclusive: 100 µM [inhibitor, partial curve]"
7,c1cc(CN2C[C@H](c3ccc4c(c3)OCO4)[C@@H]3[C@H]2C2CCN3CC2)ccn1,inactive
8,CC(C)CC(=O)N1CCC2(CC1)NCc1ccccc1-n1ccnc12,"inconclusive: 50.1 µM [inhibitor, partial curve, poor fit]"
9,O=C1N(c2ccccn2)C[C@H]2CN(Cc3ccc(F)cc3)CCN12,inactive
10,CCO[C@H]1CN(C(=O)C2(c3ccccc3)CCNCC2)C[C@@H]1O,inactive
11,CN(C)C(=O)[C@H]1CN2CCC1C[C@@H]2Cn1cc(CCO)nn1 (stereo partly drawn),inactive
12,c1ccc(C2CN3CCCC3CN2)cc1 (stereo not drawn),"inconclusive: 126 µM [inhibitor, single point]"
13,CCCS(=O)(=O)N1C[C@@H]2C[C@H](C1)c1ccc(-c3ccc4ccccc4c3)c(=O)n1C2,"inconclusive: 50.1 µM [inhibitor, full curve, poor fit]"
14,O=c1c(-c2cccs2)ccc2n1C[C@H]1C[C@@H]2CN(Cc2cc3ccccc3o2)C1,"inconclusive: 79.4 µM [inhibitor, partial curve, poor fit]"
15,CN1CCN(C(=O)Cc2c[nH]c3ncc(-c4ccsc4)cc23)CC1,active: 89.1 µM
16,COc1cc2c(cc1Oc1ccccc1)NC(=O)C21CCN(C(=O)c2ccnn2C)CC1,"inconclusive: 100 µM [inhibitor, single point]"
17,O=C1CO[C@H]2CN(Cc3ccccc3)C[C@H]2N1Cc1cccnc1,"inconclusive: 100 µM [inhibitor, single point]"
18,CN1C(=O)C2(CCN(Cc3cccnc3)C2)c2ccccc21 (stereo not drawn),inactive
19,Cc1ccccc1-c1ccc2n(c1=O)C[C@H]1C[C@@H]2CN(C(=O)CCC(=O)O)C1,inactive
20,O=c1ccc(-c2ccccc2)c2n1C[C@H]1C[C@@H]2CN(S(=O)(=O)c2cccs2)C1,"inconclusive: 89.1 µM [inhibitor, partial curve, poor fit]"
21,COc1cc2c(cc1OCC1CC1)NC(=O)C21CCN(c2nc(C)cc(C)n2)CC1,"inconclusive: 112 µM [inhibitor, single point]"

row,SMILES,Potency
1,COc1ccc(-c2cc([C@H]3CN4CC[C@H]3C[C@@H]4CNS(=O)(=O)c3cccs3)n(C)n2)cc1,"inconclusive: 89.1 µM [inhibitor, single point]"
2,Cc1ccc(C(=O)NC[C@H]2C[C@@H]3CCN2C[C@@H]3c2cc(-c3ccccc3Br)nc(C)n2)cc1,"inconclusive: 50.1 µM [inhibitor, partial curve, poor fit]"
3,CN1CCN(C(=O)Cc2c[nH]c3ncc(-c4cccc(F)c4)cc23)CC1,"inconclusive: 56.2 µM [inhibitor, partial curve, poor fit]"
4,CN1CCc2c([nH]c3ccccc23)C12CCNCC2,"inconclusive: 70.8 µM [inhibitor, single point]"
5,COc1ccc(-c2cc([C@H]3CN4CC[C@H]3C[C@@H]4CNC(=O)C3CCCCC3)n(C)n2)cc1,"inconclusive: 79.4 µM [inhibitor, partial curve]"
6,O=C(O)c1cccc(C(=O)N2C[C@@H]3C[C@H](C2)c2ccc(NC(=O)C4CC4)c(=O)n2C3)c1,"inconclusive: 112 µM [inhibitor, partial curve, poor fit]"
7,CCOC(=O)[C@@H]1[C@H]2c3ccccc3N(CCOC)C(=O)[C@H]2N(C(=O)OCC)[C@@H]1c1ccccc1,inactive
8,COc1cc2c(cc1Oc1ccccc1)NC(=O)C21CCN(Cc2ccccn2)CC1,"inconclusive: 50.1 µM [inhibitor, partial curve, poor fit]"
9,C=C[C@H]1CN2CC[C@H]1C[C@@H]2CNCc1ccc(N(C)C)cc1,"inconclusive: 126 µM [inhibitor, single point]"
10,CN(C)c1ccc(C(=O)NC[C@H]2C[C@@H]3CCN2C[C@@H]3CN2CCN(c3ccc(F)cc3)CC2)cc1,"inconclusive: 89.1 µM [inhibitor, single point]"
11,C#CCN1C(=O)[C@@H]2[C@H](c3ccccc31)[C@@H](C(=O)OCC)[C@@H](c1ccccc1)N2C(=O)C(=O)OCC,"inconclusive: 39.8 µM [inhibitor, partial curve]"
12,CC1CCN(C[C@H]2CN3CC[C@H]2C[C@@H]3CNC(=O)c2ccc(C(F)(F)F)cc2)CC1,"inconclusive: 112 µM [inhibitor, partial curve, poor fit]"
13,O=C1CC2CCN(Cc3cccc(Br)n3)CC2CCN1 (stereo not drawn),inactive
14,Cn1nc(-c2ccccc2)cc1[C@H]1CN2CC[C@H]1C[C@@H]2CNC(=O)c1ccco1,inactive
15,Cc1nc(-c2ccc(C(F)(F)F)cc2)cc([C@H]2CN3CC[C@H]2C[C@@H]3CNC(=O)N2CCOCC2)n1,"inconclusive: 50.1 µM [inhibitor, partial curve, poor fit]"
16,COCCn1c(C)cc(C(=O)N2[C@H]3CC[C@@H]2c2cnc(-c4ccc(F)cc4)nc2C3)c1C,"inconclusive: 6.31 µM [inhibitor, full curve, poor fit]"
17,CCOC(=O)[C@H]1CN(C(=O)c2ccc(SC)cc2)[C@]2(C)C(=O)N(CC3CC3)c3ccccc3[C@H]12,"inconclusive: 35.5 µM [inhibitor, partial curve, poor fit]"
18,CC[C@H]1CN2CC[C@H]1C[C@@H]2CNC(=O)Nc1ccc(Br)cc1,inactive
19,COc1cc2c(cc1OCc1ccccc1)NC(=O)C21CCN(C(C)=O)CC1,active: 39.8 µM
20,COc1ccccc1-c1cc([C@H]2CN3CC[C@H]2C[C@@H]3COC(=O)Nc2cccc(C(C)=O)c2)nc(C)n1,"inconclusive: 44.7 µM [inhibitor, partial curve]"
21,CCOC(=O)[C@H]1CN(C(=O)OCc2ccccc2)[C@]2(C)C(=O)N(CC3CC3)c3ccccc3[C@H]12,"inconclusive: 25.1 µM [inhibitor, partial curve]"

# Reference: PubChem BioAssay AID1345082 (National Center for Advancing Translational Sciences (NCATS), 2018)
